Assay results from PubChem BioAssay AID504332 (National Center for Advancing Translational Sciences (NCATS), 2011).
The campaign covered roughly 350,000 compounds. About 31,000 (8.9%) were called active. Inconclusive means that the source gave no clear call. Such entries were picked first, then a sample of the others. The call rests on the fitted dose curve; in most records, active means well fitted inhibition curve with a large enough effect; inconclusive means small, poorly fitted or top-dose-only effect; inactive means no such curve, though single readings can be large or run the other way. A potency beside an inconclusive call is a rough fit, not a confirmed value.

Biological target: Histone-lysine N-methyltransferase EHMT2 (Homo sapiens) (UniProt Q96KQ7)
Test: qHTS Assay for Inhibitors of Histone Lysine Methyltransferase G9a; further: nearly all actives have a fitted effect of over 75% in size
Details: G9a H3K9 monomethylation, AlphaScreen, 2 h; activity, negative = inhibition: at 59 µM (top of the series) unless noted
Outline: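 G9a (20 nM) was preincubated 15 min with compound, then reacted 2 h at room temperature with 500 nM biotin-H3K9 peptide and 20 µM SAM. Monomethyl-H3K9 detected by AlphaScreen using anti-H3K9me1 antibody.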
On the % scale 0 is the no-effect control and ±100 the full control effect; potency means the concentration at half of the fitted maximal effect; tags describe the fitted curve by direction and shape.

Chain of UniProt Q96KQ7 (Q96KQ7 whole entry, looked up): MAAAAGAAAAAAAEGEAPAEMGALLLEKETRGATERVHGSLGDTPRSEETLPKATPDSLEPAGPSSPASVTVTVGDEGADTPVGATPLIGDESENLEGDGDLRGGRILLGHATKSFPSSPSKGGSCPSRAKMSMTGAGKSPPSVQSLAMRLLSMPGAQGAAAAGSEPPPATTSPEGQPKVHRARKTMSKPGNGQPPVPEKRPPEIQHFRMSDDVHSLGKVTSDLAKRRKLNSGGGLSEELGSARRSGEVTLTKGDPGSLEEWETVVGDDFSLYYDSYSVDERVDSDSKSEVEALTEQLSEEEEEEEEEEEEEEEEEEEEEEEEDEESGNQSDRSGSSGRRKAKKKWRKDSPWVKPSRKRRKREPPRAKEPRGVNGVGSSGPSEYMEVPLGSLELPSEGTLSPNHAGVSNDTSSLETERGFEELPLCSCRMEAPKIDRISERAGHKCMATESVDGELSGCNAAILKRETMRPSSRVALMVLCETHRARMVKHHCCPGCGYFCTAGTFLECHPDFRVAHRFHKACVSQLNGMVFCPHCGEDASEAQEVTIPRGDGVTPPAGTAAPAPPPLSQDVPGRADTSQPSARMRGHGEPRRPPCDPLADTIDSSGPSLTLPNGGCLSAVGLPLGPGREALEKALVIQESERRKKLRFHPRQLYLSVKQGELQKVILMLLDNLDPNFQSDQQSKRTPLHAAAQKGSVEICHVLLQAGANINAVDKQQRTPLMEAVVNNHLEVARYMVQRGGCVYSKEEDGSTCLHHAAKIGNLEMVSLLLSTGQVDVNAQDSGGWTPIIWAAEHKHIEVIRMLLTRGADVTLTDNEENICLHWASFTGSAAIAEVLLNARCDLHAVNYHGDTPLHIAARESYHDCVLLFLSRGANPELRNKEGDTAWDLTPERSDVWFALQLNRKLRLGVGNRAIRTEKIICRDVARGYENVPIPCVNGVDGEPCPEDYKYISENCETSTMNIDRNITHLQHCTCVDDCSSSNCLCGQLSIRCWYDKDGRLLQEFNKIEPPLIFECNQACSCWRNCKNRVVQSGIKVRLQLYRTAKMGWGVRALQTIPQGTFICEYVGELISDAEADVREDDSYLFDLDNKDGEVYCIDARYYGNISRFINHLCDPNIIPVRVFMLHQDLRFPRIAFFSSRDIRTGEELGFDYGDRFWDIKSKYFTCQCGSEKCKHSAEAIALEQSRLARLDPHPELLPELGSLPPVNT

Row | Compound | Potency | activity, negative = inhibition
1 | O=[N+]([O-])c1cc(S(=O)(=O)Nc2cccc(Cl)c2)ccc1N/N=C/c1ccc(N2CCOCC2)cc1 | inconclusive: 0.631 µM [inhibitor, partial curve, poor fit] | 
2 | COC(=O)C1C(=O)C2=C(CC1C)NC(C)=C(C(=O)OC(C)C)C2c1ccc(C)o1 (configuration not stated) | inconclusive: 89.1 µM [inhibitor, single point] | 
3 | CC(C)OC(=O)c1c(NC(=O)Cn2cnc([N+](=O)[O-])n2)sc2c1CCCC2 | active: 15.8 µM | 
4 | Cc1c(Cl)cccc1NC(=O)c1cc(S(=O)(=O)N2CCCCC2)cn1C |  | inactive: -16.3%
5 | COC(=O)c1cccc(C23CC4(C2)[C@H](CN(Cc2cccnc2)[C@@H]4c2ccccc2)C3c2ccccc2)c1 (some centres not stated) | inconclusive: 8.91 µM [inhibitor, single point] | 
6 | CC(=O)c1cc(-c2ccccc2)n(CC(=O)NC2CCCC2)c1C |  | inactive: -6.84%
7 | O=C(CSc1nnc(-c2cccs2)n1CC1CCCO1)c1cc2ccccc2o1 (configuration not stated) | active: 44.7 µM | 
8 | COc1ccc2c(c1)-c1c(sn(-c3ccc(OC)c(OC)c3)c1=S)C(C)(C)N2 | active: 10 µM | 
9 | O=C(c1ccco1)N1CCC2(CCN(Cc3cc(C(F)(F)F)cc(C(F)(F)F)c3)CC2)CC1 |  | inactive: 1.69% [at 12.7 µM]
10 | Cc1cc[n+](-c2nc3ccccc3nc2[N-]S(=O)(=O)c2ccccc2)cc1 | inconclusive: 56.2 µM [inhibitor, partial curve, poor fit] | 
11 | CC(C)C(=O)NC(=S)/C=C1/N(C)c2ccccc2C1(C)C | active: 39.8 µM | 
12 | CCc1nnc(NC(=O)CSc2nc3c([nH]c4ccccc43)c(=O)n2-c2ccc(F)cc2)s1 |  | inactive: 26.7%
13 | Cc1ccc2oc(=O)c3cc(C(=O)Nc4ccc(C)c(F)c4)sc3c2c1 |  | inactive: 6.37%
14 | COC(=O)c1sccc1S(=O)(=O)N(CC(=O)Nc1ccccc1C)c1ccc(Cl)cc1 |  | inactive: 6.44%
15 | Cc1ccc(C(=O)Nc2cccc([N+](=O)[O-])c2)cc1S(=O)(=O)Nc1ccc(NC(=O)c2ccccc2)cc1 | inconclusive: 31.6 µM [inhibitor, single point] | 
16 | CC(=O)N1CCN(c2ccc(NC(=O)c3ccc(C(C)(C)C)cc3)cc2)CC1 | active: 11.2 µM | 
17 | CCN(C(=O)COC(=O)c1cc(NS(=O)(=O)c2ccc(Cl)c([N+](=O)[O-])c2)ccc1O)C1CCCCC1 | inconclusive: 89.1 µM [inhibitor, single point] | 
18 | Cn1c(N)c(C(=O)c2ccc(Cl)cc2)c(=O)n(C)c1=O |  | inactive: 19.8% [at 102 µM]
19 | O=C(O)CSc1nnnn1C1CCCCC1 |  | inactive: 14.8% [at 0.501 µM]
20 | N#CCCn1c(=O)c(-c2ccc(Cl)cc2)nc2cnc(Nc3ccccc3)nc21 |  | inactive: 8.13% [at 0.501 µM]
21 | Cc1nc(NCCCn2ccnc2)c2oc3ccccc3c2n1 | inconclusive: 89.1 µM [inhibitor, single point] | 
22 | Cc1ccc(C(C)C)cc1OCC(=O)Nc1ccc(N2CCCCC2)cc1 | active: 15.8 µM | 
23 | C[C@@H]1[C@H](C)CC[C@@]2(C(=O)O)CC[C@]3(C)C(=CC[C@H]4[C@@]5(C)CC[C@@H](O)C(C)(C)[C@@H]5CC[C@@]43C)[C@@H]12 |  | inactive: 8% [at 21.5 µM]

Row | Compound | Potency | activity, negative = inhibition
24 | Cc1ccc(C2=NN(C(=O)CN3C(=O)c4ccccc4S3(=O)=O)C(c3ccco3)C2)cc1 (configuration not stated) | inconclusive: 28.2 µM [inhibitor, partial curve, poor fit] | 
25 | COC(=O)c1ccc(SCC(=O)NC2CCCC2)c([N+](=O)[O-])c1 |  | inactive: -0.0157%
26 | O=C(Nc1ccccc1)C(=O)Nc1ccccn1 |  | inactive: 29.9% [at 0.501 µM]
27 | c1csc(-c2noc(CN3CCN4CCCC4C3)n2)c1 (configuration not stated) | inconclusive: 89.1 µM [inhibitor, partial curve, poor fit] | 
28 | COCc1c(N)c(C)nc(Cl)c1C#N | inconclusive: 39.8 µM [inhibitor, partial curve] | 
29 | O=C(N/N=C/c1ccc([N+](=O)[O-])o1)c1cc2ccccc2o1 | active: 50.1 µM | 
30 | COc1ccc(C(=O)NCc2nc(-c3cccc(C)c3)no2)cc1OC |  | inactive: -30.3%
31 | CCNc1c2c(nc3ccccc13)CC(C)(C)CC2=O | active: 5.62 µM | 
32 | Cc1ccc(-n2nc(C)c(C(=O)NCCCN3CCN(c4cccc(Cl)c4)CC3)c2-n2cccc2)cc1 |  | inactive: -38.2%
33 | Cc1ccc(NC(=O)COC(=O)C2CCC(=O)N2)c([N+](=O)[O-])c1 (configuration not stated) | inconclusive: 89.1 µM [inhibitor, partial curve, poor fit] | 
34 | O=C1CSC(=S)N1c1ccc(F)c(Cl)c1 | inconclusive: 31.6 µM [inhibitor, partial curve, poor fit] | 
35 | CC1CC(=O)Nc2ccccc2N1S(=O)(=O)c1cccc(F)c1 (configuration not stated) | inconclusive: 89.1 µM [inhibitor, partial curve, poor fit] | 
36 | Cc1onc(-c2ccccc2Cl)c1C(=O)Nc1ccc(S(=O)(=O)Nc2nccs2)cc1 | inconclusive: 89.1 µM [inhibitor, single point] | 
37 | Cc1ccc(S(=O)(=O)N(C)CC(=O)N2CCN(C(=O)c3ccco3)CC2)cc1 |  | inactive: 8.79%
38 | CC(CC(=O)Nc1cc(S(=O)(=O)N2CCOCC2)ccc1OCC(F)(F)F)c1ccccc1 (configuration not stated) |  | inactive: 7.7% [at 2.33 µM]
39 | CC(C)(C)C1=CC(=Nc2ccccc2N)C=C(C(C)(C)C)C1=O |  | inactive: 29.1%
40 | O=C(/C=C/c1ccco1)N1CCN(c2ncccn2)CC1 | inconclusive: 35.5 µM [inhibitor, single point] | 
41 | O=C(CSc1nc(-c2ccccc2)c(-c2ccccc2)o1)NC1CCS(=O)(=O)C1 (configuration not stated) | inconclusive: 25.1 µM [inhibitor, partial curve, poor fit] | 
42 | COc1cccc(CNC(=O)CCc2c(C)nc3c4c(C)cc(C)nc4nn3c2C)c1 |  | inactive: -1.34%
43 | CC(C)CCN1CCN(Cc2nc3ccccc3s2)CC1CCO (configuration not stated) | inconclusive: 0.282 µM [inhibitor, partial curve, poor fit] | 
44 | CCOc1ccc(C(=O)NC2C(=O)N3C(C(=O)O)=C(COC(C)=O)CSC23)cc1OCC (configuration not stated) | inconclusive: 56.2 µM [inhibitor, partial curve, poor fit] | 
45 | C=CCSc1nnc(NC(=O)c2c(CC)noc2C)s1 | inconclusive: 14.1 µM [inhibitor, partial curve, poor fit] | 
46 | O=C(NCc1cccnc1)c1cn(CCc2ccccc2)nn1 | inconclusive: 79.4 µM [inhibitor, partial curve, poor fit] | 

Row | Compound | Potency | activity, negative = inhibition
47 | CCOc1cc(-c2ccc3c(c2)OCO3)cc(=O)c2c(C)oc(C)c12 | inconclusive: 3.16 µM [inhibitor, partial curve, poor fit] | 
48 | Cc1ccccc1Cn1nc(C)c(NC(=O)c2cc3nc(-c4ccco4)cc(C(F)(F)F)n3n2)c1C | inconclusive: 89.1 µM [inhibitor, single point] | 
49 | O=[N+]([O-])c1cccc(S(=O)(=O)N/N=C/c2ccc(O)cc2)c1 | inconclusive: 31.6 µM [inhibitor, single point] | 
50 | Cc1cc(C)c2nc(N3CCCC(C(=O)N4CCN(c5ncccn5)CC4)C3)sc2c1 (configuration not stated) | inconclusive: 79.4 µM [inhibitor, single point] | 
51 | N#Cc1ccc(C(=O)Nc2cccc3ncccc23)c(F)c1 | inconclusive: 89.1 µM [inhibitor, single point] | 
52 | CCCC(NC(=O)COc1cc2c(c3oc(=O)c(C)c(C)c13)CCC(C)(C)O2)C(=O)O (configuration not stated) |  | inactive: -2.18% [at 102 µM]
53 | CCN1C(=O)CSc2ccc(C(=O)NCc3ccco3)cc21 | inconclusive: 50.1 µM [inhibitor, partial curve] | 
54 | CCOC(=O)c1sc2nc(CC(=O)OC)nc(N3CCN(c4ccc(OC)cc4)CC3)c2c1C | inconclusive: 8.91 µM [inhibitor, partial curve, poor fit] | 
55 | COc1cc(/C=C2/C(=O)N(c3cccc(Br)c3)N=C2C)cc(OC)c1O | active: 10 µM | 
56 | COc1ccc(-c2nc(CS(=O)CC(=O)NCc3ccc4c(c3)OCO4)c(C)o2)cc1 (configuration not stated) | inconclusive: 79.4 µM [inhibitor, single point] | 
57 | COc1cccc(-c2csc(N3CCN(C(=O)NC45CC6CC(CC(C6)C4)C5)CC3)n2)c1 | inconclusive: 39.8 µM [inhibitor, single point] | 
58 | Cc1ccc(C)c(C(=O)COC(=O)CN2C(=O)C3C4C=CC(C4)C3C2=O)c1 (configuration not stated) | inconclusive: 89.1 µM [inhibitor, single point] | 
59 | O=C(Cn1cc(S(=O)(=O)Cc2cccc(Cl)c2)c2ccccc21)NCc1ccccc1Cl |  | inactive: 2.71%
60 | COc1ccc(C(=O)Nc2ccccc2C(=O)Nc2ccc(C(=O)O)cc2)cc1 | inconclusive: 44.7 µM [inhibitor, partial curve] | 
61 | COc1cccc(C(=O)NCC(=O)NCc2cc(=O)n(C)c(=O)n2C)c1OC | inconclusive: 4.47 µM [inhibitor, single point] | 
62 | COc1ccc(CCC(=O)NNC(=O)Cn2nc(C)cc2C)cc1 | inconclusive: 89.1 µM [inhibitor, single point] | 
63 | CCOC(=O)C(=NC(C)CC)NNc1cccc(C(F)(F)F)c1 (configuration not stated) | inconclusive: 39.8 µM [inhibitor, single point] | 
64 | COc1ncccc1C(=O)N1CCC(n2nccc2NC(=O)CC(C)C)CC1 | inconclusive: 89.1 µM [inhibitor, single point] | 
65 | CN1CCN(C2=Cc3ccccc3Oc3ccc(Cl)cc32)CC1 | inconclusive: 22.4 µM [inhibitor, single point] | 
66 | O=C(CN(Cc1ccc(Cl)c(Cl)c1)S(=O)(=O)c1ccccc1)N/N=C\c1ccc2c(c1)OCO2 |  | inactive: 2.85%
67 | COc1ccc(NC(=O)Nc2nnc(N3CCC(C)CC3)s2)cc1OC | inconclusive: 10 µM [inhibitor, partial curve, poor fit] | 
